PubChem BioAssay AID1346428 (National Center for Advancing Translational Sciences (NCATS), 2018)
Several values for one entry are separate records, joined by “and”; a condition that tells them apart may be missing. Identical values can stand only once. Out of some 48,000 compounds screened, about 1,200 (2.5%) were called active. About 2% were inconclusive and are not listed.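 How the source made its calls: active means activation of at least 60% and not above a set upper limit (about 1 call in 100 departs from these limits); inconclusive means activation of 40% to 60%, or above that upper limit; inactive means activation under 40%.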 The list shows a part of the results.

What follows are compounds tested against Probable G-protein coupled receptor 32 (Homo sapiens) (UniProt O75388) (assay: qHTS for Agonists of Human Resolvin D1 Receptor DRV1). Conditions: CHO-K1 GPR32 beta-arrestin PathHunter luminescence, 90 min; at 76.9 µM; active compounds read high; zero percent set by DMSO-only wells.
Sequence of UniProt O75388 (O75388 whole entry, looked up, the tested form may be a part): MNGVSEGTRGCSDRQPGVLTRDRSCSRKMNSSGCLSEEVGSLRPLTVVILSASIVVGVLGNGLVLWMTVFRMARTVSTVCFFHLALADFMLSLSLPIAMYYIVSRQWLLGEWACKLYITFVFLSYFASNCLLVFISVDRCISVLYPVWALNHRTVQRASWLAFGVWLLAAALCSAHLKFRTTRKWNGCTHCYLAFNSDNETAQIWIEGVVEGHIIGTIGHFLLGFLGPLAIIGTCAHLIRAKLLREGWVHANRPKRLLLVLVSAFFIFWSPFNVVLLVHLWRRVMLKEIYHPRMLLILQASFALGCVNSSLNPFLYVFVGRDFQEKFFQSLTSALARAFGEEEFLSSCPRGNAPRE
Summary of the method: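 PathHunter enzyme-fragment complementation, CHO-K1 GPR32 stable line; 2,500 cells/well, overnight attach; cpd 90 min 37 °C 5% CO2; detection reagent 1 h RT; chemiluminescence. DMSO = EC0.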
Further: 0% is about no effect.

activation, inactive:
CCN1CCN(CCCNC(=O)CS(=O)(=O)Cc2nc(-c3cccc(OC)c3)oc2C)CC1 -14.1%
Cc1oc2ncnc(N3CCCCC3)c2c1C(=O)NCC1CCN(Cc2cccc(F)c2)CC1 -4.51%
COc1cc(OC)c(NC(=O)c2cc3c(=O)oc4ccc(C)cc4c3s2)cc1Cl 3.6%
Cc1ccc(-n2ncc3c(NCCO)ncnc32)cc1Cl 48.1%
Cc1cc(NC(=O)c2cc(-c3ccc(Cl)cc3)on2)n(-c2ccccc2)n1 -3.57%
COc1ccc(-c2cc(C(=O)Nc3cccnc3)no2)cc1OC -2.11%
COc1ccc(CNC(=O)Cc2ccc(NC(=O)N3CCSc4ncccc43)cc2)cc1OC -9.36%
COC(=O)c1cc2oc3ccccc3c2n1CC(=O)Nc1ccc(C)c(F)c1 -7.37%
COc1cc(NC(=O)c2ccc3oc(=O)c(S(=O)(=O)c4ccccc4)cc3c2)cc(OC)c1 19.6%
COc1ccc(S(=O)(=O)Nc2cccc(-c3ccc(N4CCC(C)CC4)nn3)c2)c(OC)c1 -2.81%
CCOc1ccc(NC(=O)Cn2c(=O)n(-c3cccc(Cl)c3)c(=O)c3c2c2cc(C)ccc2n3C)cc1 -0.271%
COc1c(C)cc(Br)cc1C(=O)Nc1ccc(-c2nc3ncccc3o2)cc1 11.3%
CNc1cc(NS(=O)(=O)c2ccc(N)cc2)nc(NC)n1 -0.887%
Cc1cccc(C(=O)N2CCc3cc(CNC(=O)COc4ccc(Cl)cc4)ccc32)c1 -6.95%
CCOc1cccc(C2c3[nH]c4ccccc4c3CCN2C(=O)CSc2ccccc2)c1 (configuration not stated) -37%
CCOC(=O)c1c(NC(=O)c2nc(SCC)ncc2Cl)sc2c1CCCC2 12.2%
Cc1ccc(N2C(=O)CSC23C(=O)N(Cc2ccccc2F)c2ccccc23)cc1F (configuration not stated) -22.8%
COc1ccc(NC(=O)Cn2c(=O)n(CCc3ccccc3)c(=O)c3c4c(sc32)CCCC4)cc1 -25%
CC(C)c1ccc(NC(=O)C2CCN(S(=O)(=O)c3cccc4nonc34)CC2)cc1 -15%
Cc1ccccc1Nc1c(-c2ccc(Cl)cc2)nc2c(C)cccn12 -30%
CCOC(=O)c1c(C)[nH]c(C)c1S(=O)(=O)NCC(=O)Nc1ccc(C)c(N(C)C)c1 -11.7%
CCOc1cc(CNC(=O)Cn2c(=O)c3cccn3c3ccc(F)cc32)cc(OCC)c1OCC -16.1%
CCSc1nnc2c(n1)OC(c1cc(OC)c(OC)c(OC)c1)Nc1ccccc1-2 (configuration not stated) -11.7%
Cc1ccccc1NC(=O)CSc1cn(CC(=O)N2CCCCCC2)c2ccccc12 -6.12%
Cc1nc(SCC(=O)Nc2ccccc2C)cc(-c2ccccc2)n1 -7.25%
COc1cc2c(=O)c(C(=O)c3ccc(C)c(C)c3)cn(Cc3ccc(F)cc3)c2cc1OC 3.15%
CCOc1ccccc1NC(=O)c1ccc2c(c1)CCN2S(=O)(=O)c1ccc(C)cc1 -8.02%
Cc1ccc(Cl)cc1NC(=O)CCC(=O)N1CC(C)Sc2ccccc21 (configuration not stated) -8.48%
CCC1CN(C(=O)N2CCC(C(=O)N3CCN(c4cccc(C)c4C)CC3)CC2)c2ccccc2O1 (configuration not stated) -15.1%
COc1ccccc1-c1nnc(SCC(=O)Nc2ccccc2F)o1 8.66%
O=C(NCCc1ccc(Cl)cc1)C1CCN(c2ncnc3c2nc2n3CCCCC2)CC1 -10.2%
Cc1ccc(-n2c(=O)c3c4c(sc3n(CC(=O)c3ccc(Cl)cc3)c2=O)CCC4)cc1C 3.06%
CN(Cc1ccco1)C(=O)c1ccc2c(c1)N(Cc1ccccc1F)C(=O)c1ccccc1S2 -36%
CC(=O)N1c2ccc(S(=O)(=O)NCC3CCC(C(=O)Nc4ccc(C)cc4)CC3)cc2CC1C (configuration not stated) 1.64%
CCc1ccc(NC(=O)CN2CCCN(Cc3cccc(Cl)c3)S2(=O)=O)cc1 3.5%
COC(=O)c1cc2sc(C)cc2n1CC(=O)Nc1ccc(C)c(C)c1 -5.02%
COc1ccc2c(c1)c1c(c(=O)n(-c3ccc(F)c(Cl)c3)c(=O)n1CC(=O)N1CCCC1)n2C -19.1%
Cc1c2cnn(-c3ccccc3)c(=O)c2c(C)n1CC(=O)NCCc1ccc(Cl)cc1 5.24%
CCOc1ccc(NC(=O)c2cc(S(=O)(=O)N3CCCCCC3)cn2C)cc1 -2.58%
COc1cc(CNC(=O)c2ccc3c(c2)N(C)C(=O)C2CCCCN32)cc(OC)c1OC (configuration not stated) -3.63%
CC(=O)N1CCc2c(sc3c2c(=O)n(-c2ccccc2)c(=O)n3CC(=O)Nc2ccccc2)C1 1.07%
CC(=O)N1c2nc(C(C)C)nn2C2(CCCCC2)[C@@H]2CCCC[C@@H]21 -8.51%
CCOC(=O)[C@H](CCc1ccccc1)N[C@@H](C)C(=O)N1[C@H](C(=O)O)C[C@H]2CCCC[C@@H]21 3.92%
CC(C)CN(CCCNC(=O)c1cc(=O)[nH]c2ccc(S(=O)(=O)N3CCCCCC3)cc12)CC(C)C -2.03%
CCOc1ccc2oc(=O)cc(CN3CCN(c4cc(C)ccc4C)CC3)c2c1 -15.3%
CC(=O)Nc1cccc(NC(=O)CN2C(=O)CCSc3ccccc32)c1 -0.468%
O=C(Nc1ccc2oc(-c3ccc(O)c(Br)c3)nc2c1)c1cc2ccccc2o1 -8.1%
Cc1cccc(N2CCN(C(=O)c3cccn4c(=O)c5cc(Cl)ccc5nc34)CC2C)c1 (configuration not stated) -5.31%
Cc1nc2nc(NC(=O)c3ccccc3F)[nH]n2c(=O)c1Cl 6.15%
O=C(CSc1nnc(-c2cccc(Cl)c2)o1)N1CCc2ccccc21 4.71%
CC(C)(CO)[C@@H](O)C(=O)NCCCO -1.73%
COc1cc(OC)c(NC(=O)C2=C(C)C(=O)OC23CCCCCC3)cc1Cl -8.56%
CCn1c2c(c(=O)n3ncc(C(=O)Nc4cc(Cl)ccc4C)c13)CN(Cc1ccc(OC)cc1)CC2 -1.14%
COc1ccc(C2C=C(c3cccc(OC)c3)Nc3c(C(=O)Nc4ccccc4)cnn32)cc1 (configuration not stated) -28.3%
Cc1ccn2c(Nc3ccc(C(C)C)cc3)c(-c3cccs3)nc2c1 -22.1%
CCN(CC)S(=O)(=O)c1ccc2nc(NC(=O)c3cccnc3)sc2c1 18.1%
O=C(c1ccc(Cl)cc1)N1CCC(c2ccncc2)CC1 8.45%
COc1cc(-c2noc(-c3ccc(N4CCN(C)CC4)c([N+](=O)[O-])c3)n2)cc(OC)c1OC 0.997%
O=C(Cn1c(=O)ccc2cc(S(=O)(=O)N3CCCC3)ccc21)NCc1ccc(Cl)cc1 15.8%
CC(C)(C)c1ccc(S(=O)(=O)NCc2ccc3c(c2)CCN3C(=O)c2ccccc2)cc1 -7.44%
CCOC(=O)c1cc(S(=O)(=O)NCc2ccccc2)[nH]n1 -25.3%
CCC(CO)NC(=O)C(=O)Nc1c2c(nn1-c1ccc(F)cc1)CSC2 (configuration not stated) -12.2%
COc1ccccc1CNS(=O)(=O)c1c(C)nc2scc(C)n2c1=O 9.29%
Cc1cc(Nc2ccc(C)c(Cl)c2)n2nc(Cc3ccccc3)nc2n1 9.97%
CCN(c1ncnc2c1cnn2-c1ccc(C)cc1)C1CCCCC1 -0.0092%
CCOc1ccc(NC(=O)CSc2nc(-c3ccc(OC)cc3)nc3c2Cc2c(CO)cnc(C)c2O3)cc1 -15.4%
CCOc1ccc(NC(=O)c2c(Nc3ccc(OC)cc3OC)sc(C(=O)c3ccc(Cl)cc3)c2N)cc1 -25.2%
COCCn1c(=O)[nH]c2cc(C(=O)NCc3ccccc3Cl)ccc2c1=O 13%
CC[C@H]1CN2CCc3cc(OC)c(OC)cc3[C@@H]2C[C@@H]1C[C@H]1NCCc2cc(OC)c(OC)cc21 3.44% and -9.14%
CCOc1ccc(CCNC(=O)CCc2cn(Cc3ccccc3F)c3ccccc23)cc1OCC -28.7%
CCOC(=O)c1cccc(NC(=O)c2cc3sccc3n2Cc2ccc(Cl)cc2)c1 -3.48%
O=C(O)c1ccc(CNCc2ccc(Cl)cc2)s1 -34.9%
Cc1c(-c2nc(-c3ccc4c(c3)OCO4)no2)nnn1-c1ccc(Br)cc1F -2.44%
Cc1ccccc1NC(=O)Cn1c(SCC(=O)Nc2ccc(F)cc2)nc2ccccc21 -11.6%
CCOC(=O)c1ccc(NC(=O)Cn2c(=O)n(-c3ccc(C)cc3)c(=O)c3c2cnn3C)cc1 19%
CC(C)CN(C(=O)c1cccc(S(=O)(=O)N2CCCCC2)c1)C1CCS(=O)(=O)C1 (configuration not stated) -14%
Cc1ccc2nc(Nc3cccc(Cl)c3C)c(-n3nc(C)cc3C)nc2c1 -7.88%
O=C(COc1ccccc1Cl)OCc1cc(=O)n2nc(-c3cccs3)sc2n1 4.9%
Cc1ccc(CNC(=O)Cc2c(C)c3cc4c(C)coc4cc3oc2=O)cc1 -10.4%
CCOC(=O)c1ccc(N2CCN(c3cccc(OC)c3)CC2)c(NC(=O)Nc2ccc(OCC)cc2)c1 -21.2%
CCOC(=O)c1c(NC(=O)c2nc(SCC)ncc2Cl)sc(C(C)=O)c1C -0.81%
CCC(Cn1nnc2ccccc2c1=O)NC(=O)Nc1cccc(C)c1C (configuration not stated) -8.7%
